Experimental data taken from patent EP0307553B1, “Modified splenopentines, their process of preparation and their use” (priority 1987, dated 1989).
Read-outs that look alike come from different tables or passages of the source.

Tested on: Influenzavirus A/PR/8/34
Assay type: in vivo, Balb/c-Mäusen

(N^α-Acetyl-arginyl)(N^ε-acetyl-lysyl)glutamylvalyltyrosin [DAc-SP5]
Sterberate nach 6 Tagen in % (Infektionsdosis (EID₅₀) 10², therapy during infection: 0,5 mg/kg s.c. daily over 5 days from day of infection): 33,3% | Sterberate nach 6 Tagen in % (Infektionsdosis (EID₅₀) 10³, therapy during infection: 0,5 mg/kg s.c. daily over 5 days from day of infection): 66,6% | Sterberate nach 6 Tagen in % (Infektionsdosis (EID₅₀) 10¹, therapy during infection: 0,5 mg/kg s.c. daily over 5 days from day of infection): 33,3% | Sterberate nach 6 Tagen in % (Infektionsdosis (EID₅₀) 10⁴, before infection: 0,5 mg/kg s.c. 3 x per week during 2 weeks before infection): 100% | Sterberate nach 6 Tagen in % (Infektionsdosis (EID₅₀) 10⁴, therapy during infection: 0,5 mg/kg s.c. daily over 5 days from day of infection): 100% | Sterberate nach 6 Tagen in % (Infektionsdosis (EID₅₀) 10⁵, before infection: 0,5 mg/kg s.c. 3 x per week during 2 weeks before infection): 100% | Sterberate nach 6 Tagen in % (Infektionsdosis (EID₅₀) 10⁵, therapy during infection: 0,5 mg/kg s.c. daily over 5 days from day of infection): 100%
